Legend:
[1] = system: gray mold fungi (Botrytis cinerea); test: Test Example B: tomato gray mold, spray treatment of tomato plants; conditions: tomato gray mold, spray treatment of tomato plants
[2] = system: barley powdery mildew fungi (Blumeria graminis f. sp. hordei); test: Test Example D: barley powdery mildew, spray treatment of barley plants; conditions: barley powdery mildew, spray treatment of barley plants
[3] = system: grape downy mildew fungus (Plasmopara viticola); test: Test Example G: grape downy mildew, spray treatment of grape plants; conditions: grape downy mildew, 250 ppm spray (2.5 ml/pot), 7 to 10 days after inoculation
[4] = system: wheat brown rust fungi (Puccinia recondita); test: Test Example E: wheat brown rust, spray treatment of wheat plants; type: in vivo; conditions: wheat brown rust, spray treatment of wheat plants
[5] = system: cabbage Alternaria sooty spot fungi (Alternaia brassicicola); test: Test Example C: cabbage Alternaria sooty spot, spray treatment of cabbage plants; type: in vivo; conditions: cabbage Alternaria sooty spot, spray treatment of cabbage plants
Description: [Test Example C] Cabbage Alternaria Sooty Spot
Test plants (cabbage variety: Shikidori) were cultivated until the cotyledons extended after the sowing of seeds.
<Control Value> Control value=100{1−(n/3)}

SMILES | Test B control value [1] | Test D control value [2] | Test G control value [3] | Test E control value [4] | Test C control value [5]
Cc1ccc(N)cc1-n1cc(Br)c(=O)c(Cl)c1-c1c(F)cc(F)cc1F [Compound 348] | L (L shows the control value of 50% or less) | L (L shows the control value of 50% or less) | L (L shows the control value of 50% or less) | L (L shows the control value of 50% or less) | H (H shows the control value of more than 50%)
CCc1ccccc1-n1cc(Cl)c(=O)c(Br)c1-c1c(F)cc(F)cc1F [Compound 349] | H (H shows the control value of more than 50%) | H (H shows the control value of more than 50%) | L (L shows the control value of 50% or less) | H (H shows the control value of more than 50%) | H (H shows the control value of more than 50%)
CCc1ccccc1-n1cc(Br)c(=O)c(Cl)c1-c1c(F)cc(F)cc1F [Compound 350] | H (H shows the control value of more than 50%) | H (H shows the control value of more than 50%) | L (L shows the control value of 50% or less) | H (H shows the control value of more than 50%) | H (H shows the control value of more than 50%)
Cc1cn(-c2ccccc2F)c(-c2c(F)cccc2F)c(C)c1=O [Compound 351] | H (H shows the control value of more than 50%) | H (H shows the control value of more than 50%) | L (L shows the control value of 50% or less) | H (H shows the control value of more than 50%) | H (H shows the control value of more than 50%)
CCc1ccccc1-n1cc(Br)c(=O)c(Br)c1-c1c(F)cc(F)cc1F [Compound 352] | H (H shows the control value of more than 50%) | H (H shows the control value of more than 50%) | H (H shows the control value of more than 50%) | H (H shows the control value of more than 50%) | H (H shows the control value of more than 50%)
Cc1ccccc1-n1cc(C)c(=O)c(C)c1-c1ccccc1F [Compound 353] | H (H shows the control value of more than 50%) | L (L shows the control value of 50% or less) | L (L shows the control value of 50% or less) | H (H shows the control value of more than 50%) | H (H shows the control value of more than 50%)
Cc1ccccc1-n1cc(C)c(=O)c(C)c1-c1ccccc1Cl [Compound 354] | H (H shows the control value of more than 50%) | H (H shows the control value of more than 50%) | L (L shows the control value of 50% or less) | H (H shows the control value of more than 50%) | H (H shows the control value of more than 50%)
Cc1ccccc1-n1cc(C)c(=O)c(CC(F)(F)F)c1-c1c(F)cc(F)cc1F [Compound 355] | L (L shows the control value of 50% or less) | L (L shows the control value of 50% or less) | L (L shows the control value of 50% or less) | L (L shows the control value of 50% or less) | H (H shows the control value of more than 50%)
COc1cc(F)c(-c2c(CC(F)(F)F)c(=O)c(Br)cn2-c2ccccc2C)c(F)c1 [Compound 356] | H (H shows the control value of more than 50%) | H (H shows the control value of more than 50%) | H (H shows the control value of more than 50%) | H (H shows the control value of more than 50%) | H (H shows the control value of more than 50%)
Cc1cccc(F)c1-n1cc(Br)c(=O)c(Cl)c1-c1ccc(F)cc1 [Compound 358] | H (H shows the control value of more than 50%) | L (L shows the control value of 50% or less) | L (L shows the control value of 50% or less) | L (L shows the control value of 50% or less) | L (L shows the control value of 50% or less)
Cc1cccc(F)c1-n1cc(Br)c(=O)c(Br)c1-c1ccc(F)cc1 [Compound 359] | H (H shows the control value of more than 50%) | L (L shows the control value of 50% or less) | L (L shows the control value of 50% or less) | L (L shows the control value of 50% or less) | L (L shows the control value of 50% or less)
O=c1c(Br)cn(-c2ccccc2F)c(-c2c(F)cccc2F)c1Cl [Compound 361] | H (H shows the control value of more than 50%) | L (L shows the control value of 50% or less) | H (H shows the control value of more than 50%) | H (H shows the control value of more than 50%) | H (H shows the control value of more than 50%)
O=c1c(Br)cn(-c2ccccc2)c(-c2c(F)cccc2F)c1Cl [Compound 362] | H (H shows the control value of more than 50%) | L (L shows the control value of 50% or less) | H (H shows the control value of more than 50%) | H (H shows the control value of more than 50%) | H (H shows the control value of more than 50%)
O=c1c(Br)cn(-c2ccccc2)c(-c2c(F)cccc2F)c1Br [Compound 363] | H (H shows the control value of more than 50%) | L (L shows the control value of 50% or less) | H (H shows the control value of more than 50%) | H (H shows the control value of more than 50%) | H (H shows the control value of more than 50%)
Cc1c(-n2cc(Br)c(=O)c(Cl)c2-c2c(F)cc(F)cc2F)cccc1C(F)(F)F [Compound 364] | H (H shows the control value of more than 50%) | H (H shows the control value of more than 50%) | H (H shows the control value of more than 50%) | H (H shows the control value of more than 50%) | H (H shows the control value of more than 50%)
Cc1c(-n2cc(Br)c(=O)c(Br)c2-c2c(F)cc(F)cc2F)cccc1C(F)(F)F [Compound 365] | H (H shows the control value of more than 50%) | L (L shows the control value of 50% or less) | L (L shows the control value of 50% or less) | L (L shows the control value of 50% or less) | H (H shows the control value of more than 50%)
COc1cccc(-n2cc(Br)c(=O)c(Cl)c2-c2c(F)cc(F)cc2F)c1C [Compound 366] | H (H shows the control value of more than 50%) | H (H shows the control value of more than 50%) | H (H shows the control value of more than 50%) | H (H shows the control value of more than 50%) | H (H shows the control value of more than 50%)
COc1cccc(-n2cc(Br)c(=O)c(Br)c2-c2c(F)cc(F)cc2F)c1C [Compound 367] | H (H shows the control value of more than 50%) | H (H shows the control value of more than 50%) | H (H shows the control value of more than 50%) | H (H shows the control value of more than 50%) | H (H shows the control value of more than 50%)
Cc1cccc(F)c1-n1cc(Cl)c(=O)c(Cl)c1-c1ccc(F)cc1 [Compound 369] | H (H shows the control value of more than 50%) | L (L shows the control value of 50% or less) | H (H shows the control value of more than 50%) | H (H shows the control value of more than 50%) | L (L shows the control value of 50% or less)
Cc1cn(-c2ccccc2C(F)(F)F)c(-c2c(F)cccc2F)c(C)c1=O [Compound 370] | L (L shows the control value of 50% or less) | L (L shows the control value of 50% or less) | L (L shows the control value of 50% or less) | L (L shows the control value of 50% or less) | H (H shows the control value of more than 50%)
O=c1c(Br)cn(-c2ccccc2C(F)(F)F)c(-c2c(F)cccc2F)c1Cl [Compound 371] | H (H shows the control value of more than 50%) | H (H shows the control value of more than 50%) | L (L shows the control value of 50% or less) | H (H shows the control value of more than 50%) | H (H shows the control value of more than 50%)

Reference: patent US11000038B2, “Pyridone compounds and agricultural and horticultural fungicides containing the same as active ingredients” (priority 2017, dated 2021)
